According to PubChem BioAssay AID686978 (National Center for Advancing Translational Sciences (NCATS), 2013):
Where “and” joins values, the source holds several entries; their conditions need not be identical. Equal entries are not always repeated. In all, about 420,000 compounds went through this assay and about 64,000 (15%) were called active. This list was built around the results that the source calls inconclusive (neither active nor inactive); the mix of calls is not that of the screen. Calls come from the whole dose curve; as a rule, active = well fitted inhibition curve with a large enough effect; inconclusive = small, poorly fitted or top-dose-only effect; inactive = flat fitted curve, though single readings scatter. Potencies of inconclusive entries are left out as doubtful fits. Some structures have more than one record in an assay (separate samples or runs), and their calls can disagree.

Test: qHTS for Inhibitors of human tyrosyl-DNA phosphodiesterase 1 (TDP1): qHTS in cells in absence of CPT; note: nearly all actives have a fitted effect of over 55% in size
Details: DT40 Tdp1-/- hTDP1 cells, no CPT, ATP luminescence, 48 h; activity change, negative = growth inhibition: at 46.2 µM (top of the series)
How it was run: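 Chicken DT40 Tdp1-/- cells stably complemented with human TDP1 were seeded at 400 cells/well with DMSO in place of 20 nM camptothecin. After compound pinning, cells grew at least 48 hr at 37 °C; viability read by CellTiter-Glo luminescence.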
% is set by controls: 0 for no effect and ±100 for the full control effect; potency is the fitted concentration of half-maximal effect; tags give direction and shape of the fitted curve.

SMILES | Potency | activity change, negative = growth inhibition
CN(C)c1ccnc2sc(C(=O)NCc3ccccc3)c(N)c12 | inconclusive [inhibitor, single point] | 
COc1ccc(C(=O)NC(=S)Nc2ccc(CN3CCOCC3)cc2)cc1 | inconclusive [inhibitor, single point] | 
CC(C)(C)C1CCC(=NNC(=O)CN(c2ccccc2)S(C)(=O)=O)CC1 (centres undefined) |  | inactive: -4.79%
CN(C)Cc1cc(O)c(CN(C)C)cc1O | active: 3.66 µM | 
O=S(=O)(Nn1c(O)c(C=C2N=c3ccccc3=N2)sc1=S)c1ccccc1 | inconclusive [inhibitor, partial curve] | 
NCCOB(c1ccccc1)c1ccccc1 | active: 16.4 µM | 
Cc1noc(C)c1NC(=O)N(C)C[C@H]1Oc2c(cccc2N(C)C)C(=O)N([C@H](C)CO)C[C@@H]1C |  | inactive: 1.57%
COc1ccc(S(=O)(=O)Nc2ccc3cn[nH]c3c2)cc1C | inconclusive [inhibitor, single point] | 
COC(=O)[C@@]12C[C@@H](CC(=O)NCCCCc3ccccc3)C(=O)N(Cc3ccccc3)C1=CCC(C)(C)C2 | inconclusive [inhibitor, single point] | 
Cc1ccc(S(=O)(=O)NCCc2cccs2)cc1 |  | inactive: -19.9%
CCN1CCCC1CN(Cc1cc2ccc(C)cc2[nH]c1=O)C(=S)Nc1ccccc1OC (centres undefined) | active: 20.6 µM | 
Cc1nnc(SCc2c(Cl)cccc2Cl)n(N)c1=O | inconclusive [inhibitor, partial curve] | 
O=C(CSc1ncccn1)N(Cc1cccnc1)C(CCc1ccccc1)c1nc2ccccc2[nH]1 (centres undefined) | inconclusive [inhibitor, single point] | 
Cc1ccc(CN2CCC(C(=O)Nc3ccc(Oc4cccnc4)cc3)CC2)cc1 | active: 16.4 µM | 
CC(=O)Oc1ccc2occ(/C=N/c3cc(=O)[nH]c(=S)[nH]3)c(=O)c2c1 | inconclusive [inhibitor, single point] | 
O=C1CCc2cc(S(=O)(=O)NC(C(=O)Nc3ccc(F)cc3)c3ccccc3)ccc2N1 (centres undefined) |  | inactive: -7.87%
Cc1cc(C)c(-c2csc(NC(=O)C3=COCCO3)n2)cc1C | active: 20.6 µM | 
CC1(C)C=Cc2cc3ccc(=O)oc3cc2O1 | inactive and active: 8.2 µM | 
CC1CC(=O)Nc2ccccc2N1C(=O)COc1ccc2ccccc2c1 (centres undefined) | inconclusive [inhibitor, single point] | 
O=C1CC(Cc2ccc(Cl)cc2)C(=O)N1c1ccncc1 (centres undefined) |  | inactive: -16.8%
Cc1ccc(CNC(=O)NCc2ccccc2)cc1 |  | inactive: -0.0882%
CCCC(=O)NC(=S)Nc1cccc(C(C)=O)c1 |  | inactive: -3.74%
Cc1sc2nc(CSc3ncn[nH]3)[nH]c(=O)c2c1C | inconclusive [inhibitor, single point] | 
CNS(=O)(=O)c1ccc(NC(=O)c2nc3nc(C)cc(C(F)F)n3n2)cc1 | inconclusive [inhibitor, partial curve] | 
COc1cccc(-c2cc(C(F)(F)F)n3nc(-c4ccc(C)cc4)cc3n2)c1 |  | inactive: -15.2%

SMILES | Potency | activity change, negative = growth inhibition
CCC1CCCCN1C(=S)NC(=O)c1cccs1 (centres undefined) | inconclusive [inhibitor, single point] | 
O=C1C(=Cc2ccco2)C(=O)c2ccccc21 | inconclusive [inhibitor, single point] | 
COc1cccc(Cn2c(=O)c(-c3cccs3)nc3cnc(OC)nc32)c1 |  | inactive: 10.9%
COc1cc(OC)nc(Nc2nc(C(N)Cc3ccccc3)cs2)n1 (centres undefined) | active: 18.4 µM | 
Cc1nc2nc(CNC(=O)c3cccc(F)c3)nn2c(C)c1CCC(=O)Nc1ccc(F)cc1 |  | inactive: -8.55%
CN1CCN(C(=O)c2ccccc2NC(=O)c2cccc(Cl)c2)CC1 |  | inactive: -4.07%
Cc1cccc(-n2ncc3c2CCCC3NC(=O)c2ccc[n+]([O-])c2)c1C (centres undefined) | inconclusive [inhibitor, partial curve] | 
COc1ccccc1Cn1c(-c2ccccc2OC)nc2ccccc21 | inconclusive [inhibitor, single point] | 
COC(=O)Nc1ccc(S(=O)(=O)Nc2cccc3ccccc23)cc1 | inconclusive [inhibitor, single point] | 
CC(C)c1cnc2c(c1SCc1ccc([N+](=O)[O-])cc1)c(=O)n(C)c(=O)n2C | active: 8.2 µM | 
O=C(c1ccccc1-c1ccccc1)N1CCOCC1 |  | inactive: -4.8%
COCCNC(=S)N/N=C(\C)c1ccccc1F | inconclusive [inhibitor, single point] | 
O=C(C1CCCN(S(=O)(=O)c2ccc(Br)cc2)C1)N1CCN(Cc2ccccc2)CC1 (centres undefined) | inconclusive [inhibitor, single point] | 
COc1ccc(-c2nc(=S)[nH][nH]2)cc1 |  | inactive: -21.4%
CN1CCCN(Cc2nc(-c3cccc(C(F)(F)F)c3)no2)CC1 | active: 16.4 µM | 
O=C(COc1ccc2ccccc2c1)Nc1ccc(O)c(-c2nc3ccccc3o2)c1 | inconclusive [inhibitor, single point] | 
CCOC(=O)c1cnc2c(C)cccc2c1NCCCN1CCOCC1 | inconclusive [inhibitor, single point] | 
CCc1nc2c(OCc3ccc(C(F)(F)F)cc3)cccn2c1N(C)C(=O)c1ccco1 | inconclusive [inhibitor, single point] | 
COc1cc2c(cc1OC)C(COc1ccc(F)cc1)N(C(=O)C(C)C)CC2 (centres undefined) | inconclusive [inhibitor, partial curve] | 
Fc1ccccc1Nc1n[nH]c(=S)s1 |  | inactive: -8.37%
COc1ccc(N2c3ccccc3CN(Cc3ccccc3)CC2Cc2cc(OC)c(OC)c(OC)c2)cc1 (centres undefined) | inconclusive [inhibitor, single point] | 
CCOc1ccccc1NC(=O)CN1CCN(C(=O)C2CCCO2)CC1 (centres undefined) |  | inactive: -10.5%
COc1ccc(OC)c(NC(=O)Cc2nn(C)c(=O)c3ccccc23)c1 | active: 16.4 µM | 
O=C(Nc1cccc([N+](=O)[O-])c1)N1CCN(c2ccccc2)CC1 | inconclusive [inhibitor, partial curve] | 
